Experimental data from the supplement of paper PMC3334620.
Whole data set: some 33,000 sequences, median “E-score (-0.5 to 0.5)” near -0.035, cut for the highest 2% near 0.35. The list shows a part of the results.

target: T1, Pdr3 (UniProt P33200); test: PBM E-score (8-mer binding enrichment) (E-score (-0.5 to 0.5)); higher = stronger / more preferred TF binding; most listed sequences are background and not binding sites; details: protein concentration: 200 nM; construct: GST-full length
T1 sequence: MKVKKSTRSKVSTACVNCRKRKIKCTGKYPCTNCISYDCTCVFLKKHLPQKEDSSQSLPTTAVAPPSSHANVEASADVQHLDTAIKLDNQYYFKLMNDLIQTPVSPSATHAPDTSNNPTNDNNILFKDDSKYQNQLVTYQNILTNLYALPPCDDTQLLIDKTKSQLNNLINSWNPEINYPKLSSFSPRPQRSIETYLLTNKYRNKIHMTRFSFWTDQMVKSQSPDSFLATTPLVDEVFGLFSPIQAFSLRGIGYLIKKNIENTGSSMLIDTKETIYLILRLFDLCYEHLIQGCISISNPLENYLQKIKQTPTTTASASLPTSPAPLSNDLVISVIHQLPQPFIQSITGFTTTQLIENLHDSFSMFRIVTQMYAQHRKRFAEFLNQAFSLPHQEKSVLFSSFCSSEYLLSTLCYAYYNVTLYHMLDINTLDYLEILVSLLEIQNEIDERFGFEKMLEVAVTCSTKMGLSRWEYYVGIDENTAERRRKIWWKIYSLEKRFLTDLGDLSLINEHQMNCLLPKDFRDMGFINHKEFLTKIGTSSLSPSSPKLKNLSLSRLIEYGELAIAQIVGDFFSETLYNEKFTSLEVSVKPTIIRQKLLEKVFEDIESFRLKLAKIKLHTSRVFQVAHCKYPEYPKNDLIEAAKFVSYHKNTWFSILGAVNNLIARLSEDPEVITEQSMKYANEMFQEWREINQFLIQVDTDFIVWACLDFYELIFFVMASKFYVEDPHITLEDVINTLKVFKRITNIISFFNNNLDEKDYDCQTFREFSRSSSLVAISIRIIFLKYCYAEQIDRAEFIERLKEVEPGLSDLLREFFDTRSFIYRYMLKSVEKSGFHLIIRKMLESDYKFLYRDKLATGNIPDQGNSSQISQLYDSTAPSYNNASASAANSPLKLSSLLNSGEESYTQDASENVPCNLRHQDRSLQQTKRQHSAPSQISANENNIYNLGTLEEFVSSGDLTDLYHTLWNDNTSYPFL
Method in brief: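 Universal all-10-mer Agilent arrays, fresh or stripped once, were converted to double-stranded form by primer extension. GST-tagged yeast transcription factors from PURExpress in vitro transcription/translation, full-length or DNA-binding domain only, were applied at about 100-200 nM and detected with fluorescent anti-GST. After masliner normalisation, the Universal PBM Analysis Suite scored each ungapped eight-base word together with its reverse complement by E-score.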

| Sequence | PBM E-score |
| --- | --- |
| AACCGCTT | -0.0131 |
| ATCGGGAG | 0.162 |
| GACCGCGC | 0.199 |
| CGAGAAAC | 0.0825 |
| ACCTCAGT | -0.1 |
| AGTGAGTC | -0.161 |
| AAGCGTTA | -0.163 |
| ATTTAGAG | 0.0391 |
| GCCCTTCC | 0.0371 |
| CAATTTGC | -0.0517 |
| GCTGGTCA | -0.244 |
| ATATGCAG | -0.216 |
| CCTCAAAG | -0.268 |
| AGCAGTGA | 0.133 |
| AGGGTCGA | 0.0324 |
| AACTGTCT | -0.0879 |
| CCGTTTAG | 0.135 |
| ATGGTGGA | -0.132 |
| GCAAGATA | -0.00203 |
| CCTGTGGA | -0.28 |
| GTGCTGGA | -0.0428 |
| CAGGCACA | -0.171 |
| CTAGATGA | -0.196 |
| AGAGGTGC | -0.14 |
| GAGGTTTA | -0.0911 |

| Sequence | PBM E-score |
| --- | --- |
| GTAATAAC | -0.114 |
| ACGCTAAC | -0.141 |
| GCGACCGC | 0.158 |
| ATGCCGGC | 0.341 |
| GACGCCAC | -0.018 |
| ATCGGACC | 0.313 |
| CCCCCAAC | -0.173 |
| GTAGCAGA | -0.114 |
| ACCCCGCG | 0.32 |
| AAGGAAGC | -0.0529 |
| TAGAACCA | -0.178 |
| AATGTGGT | -0.104 |
| CGGACTCA | 0.31 |
| TAACAAGA | -0.151 |
| AATAACCC | 0.181 |
| GGACTCCC | -0.0707 |
| AAATACAG | -0.00964 |
| GATATGAC | 0.081 |
| ACCTTCCA | -0.198 |
| AGGGCTTA | -0.315 |
| ACGACCTA | -0.00577 |
| ATGCAGTG | 0.00421 |
| AATTCGCT | 0.129 |
| AGCGTGAG | -0.167 |
| ATACTCAA | -0.0716 |

| Sequence | PBM E-score |
| --- | --- |
| CTCCAACA | -0.0174 |
| CATACGAC | -0.277 |
| CATTAGGC | -0.185 |
| AGTTCAAC | 0.104 |
| CATGCCGA | 0.248 |
| AGTCTACA | -0.309 |
| CAACTGTG | -0.0651 |
| AGGGGGCG | -0.106 |
| CAATCCCC | 0.0676 |
| AGACCTAA | -0.155 |
| TCTAGAAA | -0.0878 |
| TAATACGA | -0.185 |
| CTCTATAC | -0.136 |
| AGCGCTAA | 0.0193 |
| AAGTTAAG | -0.126 |
| ATTAGTGG | 0.067 |
| ACCGTTTA | 0.0286 |
| CTAAACGC | -0.0941 |
| GCATGGGC | -0.128 |
| ATTTCTGA | -0.26 |
| TACCACCA | -0.0345 |
| AAGCCCCC | -0.0967 |
| ATACTTAG | -0.0301 |
| GGCCTGCA | -0.132 |
| AGTTTTCG | -0.0374 |

| Sequence | PBM E-score |
| --- | --- |
| GGGGCAAC | -0.155 |
| CCCTCATA | -0.212 |
| TGCTCGAA | -0.133 |
| CCCTAAAC | -0.209 |
| CGCGAGCA | 0.0715 |
| ATAGAATG | -0.00651 |
| GTTTCTGA | 0.0828 |
| AGACTAAC | -0.193 |
| ACCGTAAC | -0.134 |
| AACCAGAT | 0.118 |
| CGGACCAA | 0.32 |
| GGGAGTTA | -0.0534 |
| CGGGTCTC | 0.23 |
| AGTGGTGG | -0.0762 |
| GAGCTGTA | -0.207 |
| CCCTGTTA | -0.104 |
| GGCGGCAC | 0.235 |
| CATGTGCG | 0.0377 |
| AAATAAAT | 0.0678 |
| CGTCACTC | 0.00988 |
| TCACGCAA | 0.00609 |
| AGGGGCTA | -0.133 |
| CGTGCCAA | -0.0687 |
| ATTCAACG | 0.174 |
| ATTGTAAA | 0.00411 |

| Sequence | PBM E-score |
| --- | --- |
| ACCTATAC | -0.22 |
| ATGGACTC | -0.0723 |
| TATAGATA | -0.135 |
| CTGGGTCA | -0.279 |
| AACCCTAG | -0.223 |
| TGTCGCAA | -0.0293 |
| GTCCGATA | 0.239 |
| CACGGACC | 0.378 |
| AAAACAGC | 0.0129 |
| CCCCGGTA | 0.122 |
| CACCCCCC | -0.276 |
| AGTATCCG | 0.318 |
| ATATCCGA | 0.346 |
| ACGGAGTC | 0.193 |
| ATTGTGGC | 0.0289 |
| AAACGACC | -0.0088 |
| AAACCTCA | 0.109 |
| CGTCCAGC | -0.227 |
| GCATGAGC | -0.042 |
| ACACAGGA | -0.108 |
| CCGTAGTC | 0.223 |
| GAATGAGC | -0.052 |
| GAGCTGGC | -0.0289 |
| GAGGACGC | -0.0118 |
| AAGGATCG | 0.0379 |

| Sequence | PBM E-score |
| --- | --- |
| CCCACAAG | -0.0425 |
| CAAGGAGC | -0.0806 |
| CATGACTA | -0.249 |
| AATTAATG | 0.0831 |
| ACCTATCC | 0.0536 |
| CACTTAGC | -0.152 |
| ACTTGTGG | -0.138 |
| AAATTTTC | 0.0282 |
| CCTGTTCA | -0.128 |
| CAAACTTC | 0.0413 |
| AGGTACTA | -0.118 |
| CCCTGGGC | -0.163 |
| CCGGGGCC | 0.367 |
| CCCCCCCC | -0.411 |
| TCGAGACA | -0.0963 |
| AAATGACA | -0.0615 |
| ATTCCTGA | -0.0913 |
| CTGCTACA | -0.0466 |
| CGCGGAGA | 0.415 |
| CCGTGTCA | 0.24 |
| TCGACTAA | -0.0665 |
| CTGTGAGC | -0.133 |
| ATCTCGAA | 0.0682 |
| ATTTCTGG | -0.103 |
| GGAGGATA | -0.0778 |

| Sequence | PBM E-score |
| --- | --- |
| ATAATAGC | -0.0254 |
| CAACGCAC | -0.0398 |
| CTAGTCTC | -0.269 |
| TACACGTA | -0.168 |
| AATGAGGT | -0.0918 |
| CCCTACAC | -0.102 |
| CGTCATCA | -0.0841 |
| ATTAATAA | 0.107 |
| ATCTCCGG | 0.4 |
| ATCCTATG | -0.141 |
| AACGAGCA | -0.201 |
| GCTCCAAA | -0.143 |
| AATAGTCA | 0.0148 |
| AGCAGGCC | -0.0657 |
| AACGTCTC | -0.214 |
| CTACGCTA | -0.236 |
| ATTTAAGG | -0.0784 |
| TGAGGGAA | -0.0248 |
| AATCATGG | -0.227 |
| CACTTCTA | -0.108 |
| CTGATCAC | -0.24 |
| AAGAACGA | 0.0198 |
| CATCGGGG | 0.0399 |
| AAAGGCTG | -0.156 |
| CGCACTTA | -0.0129 |

| Sequence | PBM E-score |
| --- | --- |
| TCGGTACA | 0.0197 |
| ACGTCAGG | -0.326 |
| AAAAGCCA | 0.153 |
| CCCGCAGG | 0.142 |
| TAGTACAA | -0.0113 |
| CCCGTGAG | 0.217 |
| CATGGTAC | -0.0651 |
| GGATGGGA | 0.221 |
| AGGTCCTA | -0.23 |
| GCTTGGTA | -0.168 |
| CAGATGCC | -0.167 |
| CCATTCAG | 0.0183 |
| GACGGGGA | 0.207 |
| CGCGGGCC | 0.379 |
| CGTGGAAC | 0.231 |
| ATTGTGGA | -0.245 |
| ACGTGAAC | -0.0534 |
| GCTTTGAA | -0.202 |
| TGATCCCA | 0.0245 |
| ATGTAGTC | -0.115 |
| CACTACAG | -0.127 |
| GGTAACCA | -0.162 |
| CGGAGTAC | 0.236 |
| TCTCTCCA | -0.0978 |
| TCCCAGAA | -0.145 |

| Sequence | PBM E-score |
| --- | --- |
| CCTTACTA | 0.029 |
| ACACTGTA | -0.232 |
| ATTATTTA | 0.146 |
| ATATTCGA | -0.0203 |
| ACGTGTAA | -0.14 |
| AAGCGCAG | 0.179 |
| CAAGGACC | -0.0936 |
| ATCCTCCC | 0.0485 |
| CATTACCA | 0.00813 |
| AGGCGGGG | 0.15 |
| CTCCGTTA | 0.216 |
| AATCAATC | 0.133 |
| GATGTTAA | -0.0551 |
| ACAGATAA | -0.0485 |
| AGCGTACC | -0.0568 |
| CCCGAATC | 0.298 |
| GTATGCGA | 0.0469 |
| TCGCCTCA | 0.0641 |
| CCTCCCCC | -0.23 |
